This note sets out measurements from the supplement of paper PMC11876631.

This data set concerns the target Escherichia coli (laboratory strain). The experiment in a line: barcode share on antibiotic plates over drug-free plates; higher = less susceptible. As to the method: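 A pool of E. coli strains, each edited to carry one amino-acid change in an essential protein, was grown for 48 h on minimal glucose agar with or without antibiotic; strain barcodes were sequenced; mean of two replicates.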

Where [1] appears, read: antibiotic: carbenicillin, 2× MIC (3.1 µg/mL).
Where [2] appears, read: antibiotic: gentamicin, 2× MIC (MIC 0.45 µg/mL).

± gives the standard deviation of the averaged measurements. Laboratory Escherichia coli strains with one amino-acid change in an essential protein, pooled on minimal glucose agar with carbenicillin or gentamicin at twice the control MIC (plus kanamycin and chloramphenicol for the plasmids), 48 h. Fold change of barcode share against drug-free plates; higher = less susceptible. Active = above 20 in both replicates (the paper's putatively resistant). '<' = one read or none on drug, '>' = one read or none on a drug-free plate. Shares are relative, so most strains fall below 1 when a few take over. Listed are strains with at least 15 reads on both drug-free plates, and hits; most hits rest on fewer reference reads. Replicate rank correlation about 0.5. Edits are read from barcodes.

B1: argA M173Q (protein)
chain: MVKERKTELVEGFRHSVPYINTHRGKTFVIMLGGEAIEHENFSSIVNDIGLLHSLGIRLVVVYGARPQIDANLAAHHHEPLYHKNIRVTDAKTLELVKQAAGTLQLDITARLSMSLNNTPLQGAHINVVSGNFIIAQPLGVDDGVDYCHSGRIRRIDEDAIHRQLDSGAIVLQGPVAVSVTGESFNLTSEEIATQLAIKLKAEKMIGFCSSQGVTNDDGDIVSELFPNEAQARVEAQEEKGDYNSGTVRFLRGAVKACRSGVRRCHLISYQEDGALLQELFSRDGIGTQIVMESAEQIRRATINDIGGILELIRPLEQQGILVRRSREQLEMEIDKFTIIQRDNTTIACAALYPFPEEKIGEMACVAVHPDYRSSSRGEVLLERIAAQAKQSGLSKLFVLTTRSIHWFQERGFTPVDIDLLPESKKQLYNYQRKSKVLMADLG
B1: the “fold change of barcode share” value runs as follows: under setting [1], 0.355 ± 0.0081; under setting [2], 0.0112 ± 0.012.

B2: argA M173P (protein)
chain: MVKERKTELVEGFRHSVPYINTHRGKTFVIMLGGEAIEHENFSSIVNDIGLLHSLGIRLVVVYGARPQIDANLAAHHHEPLYHKNIRVTDAKTLELVKQAAGTLQLDITARLSMSLNNTPLQGAHINVVSGNFIIAQPLGVDDGVDYCHSGRIRRIDEDAIHRQLDSGAIVLPGPVAVSVTGESFNLTSEEIATQLAIKLKAEKMIGFCSSQGVTNDDGDIVSELFPNEAQARVEAQEEKGDYNSGTVRFLRGAVKACRSGVRRCHLISYQEDGALLQELFSRDGIGTQIVMESAEQIRRATINDIGGILELIRPLEQQGILVRRSREQLEMEIDKFTIIQRDNTTIACAALYPFPEEKIGEMACVAVHPDYRSSSRGEVLLERIAAQAKQSGLSKLFVLTTRSIHWFQERGFTPVDIDLLPESKKQLYNYQRKSKVLMADLG
Consider B2, for which the “fold change of barcode share” value under setting [1] worked out at 0.309 ± 0.028.

B3: argA V399A (protein)
chain: MVKERKTELVEGFRHSVPYINTHRGKTFVIMLGGEAIEHENFSSIVNDIGLLHSLGIRLVVVYGARPQIDANLAAHHHEPLYHKNIRVTDAKTLELVKQAAGTLQLDITARLSMSLNNTPLQGAHINVVSGNFIIAQPLGVDDGVDYCHSGRIRRIDEDAIHRQLDSGAIVLMGPVAVSVTGESFNLTSEEIATQLAIKLKAEKMIGFCSSQGVTNDDGDIVSELFPNEAQARVEAQEEKGDYNSGTVRFLRGAVKACRSGVRRCHLISYQEDGALLQELFSRDGIGTQIVMESAEQIRRATINDIGGILELIRPLEQQGILVRRSREQLEMEIDKFTIIQRDNTTIACAALYPFPEEKIGEMACVAVHPDYRSSSRGEVLLERIAAQAKQSGLSKLFALTTRSIHWFQERGFTPVDIDLLPESKKQLYNYQRKSKVLMADLG
Turning to B3, the “fold change of barcode share” value came out at 0.476 ± 0.16 under setting [1] and 0.0194 ± 0.0071 under setting [2].

B4: argA M173D (protein)
chain: MVKERKTELVEGFRHSVPYINTHRGKTFVIMLGGEAIEHENFSSIVNDIGLLHSLGIRLVVVYGARPQIDANLAAHHHEPLYHKNIRVTDAKTLELVKQAAGTLQLDITARLSMSLNNTPLQGAHINVVSGNFIIAQPLGVDDGVDYCHSGRIRRIDEDAIHRQLDSGAIVLDGPVAVSVTGESFNLTSEEIATQLAIKLKAEKMIGFCSSQGVTNDDGDIVSELFPNEAQARVEAQEEKGDYNSGTVRFLRGAVKACRSGVRRCHLISYQEDGALLQELFSRDGIGTQIVMESAEQIRRATINDIGGILELIRPLEQQGILVRRSREQLEMEIDKFTIIQRDNTTIACAALYPFPEEKIGEMACVAVHPDYRSSSRGEVLLERIAAQAKQSGLSKLFVLTTRSIHWFQERGFTPVDIDLLPESKKQLYNYQRKSKVLMADLG
For the protein B4, the “fold change of barcode share” value under setting [1] was 0.83 ± 0.33.

B5: fabI L10A (protein)
chain: MGFLSGKRIAVTGVASKLSIAYGIAQAMHREGAELAFTYQNDKLKGRVEEFAAQLGSDIVLQCDVAEDASIDTMFAELGKVWPKFDGFVHSIGFAPGDQLDGDYVNAVTREGFKIAHDISSYSFVAMAKACRSMLNPGSALLTLSYLGAERAIPNYNVMGLAKASLEANVRYMANAMGPEGVRVNAISAGPIRTLAASGIKDFRKMLAHCEAVTPIRRTVTIEDVGNSAAFLCSDLSAGISGEVVHVDGGFSIAAMNELELK
In the case of B5, under setting [1], the “fold change of barcode share” value turned out to be 0.434 ± 0.3.

B6: fabI I24A (protein)
chain: MGFLSGKRILVTGVASKLSIAYGAAQAMHREGAELAFTYQNDKLKGRVEEFAAQLGSDIVLQCDVAEDASIDTMFAELGKVWPKFDGFVHSIGFAPGDQLDGDYVNAVTREGFKIAHDISSYSFVAMAKACRSMLNPGSALLTLSYLGAERAIPNYNVMGLAKASLEANVRYMANAMGPEGVRVNAISAGPIRTLAASGIKDFRKMLAHCEAVTPIRRTVTIEDVGNSAAFLCSDLSAGISGEVVHVDGGFSIAAMNELELK
Consider B6, for which the “fold change of barcode share” value runs as follows: under setting [1], 0.37 ± 0.1; under setting [2], 0.00375 ± 0.0015.

B7: fabI V184A (protein)
chain: MGFLSGKRILVTGVASKLSIAYGIAQAMHREGAELAFTYQNDKLKGRVEEFAAQLGSDIVLQCDVAEDASIDTMFAELGKVWPKFDGFVHSIGFAPGDQLDGDYVNAVTREGFKIAHDISSYSFVAMAKACRSMLNPGSALLTLSYLGAERAIPNYNVMGLAKASLEANVRYMANAMGPEGVRANAISAGPIRTLAASGIKDFRKMLAHCEAVTPIRRTVTIEDVGNSAAFLCSDLSAGISGEVVHVDGGFSIAAMNELELK
With B7, under setting [1], the “fold change of barcode share” value was 0.284 ± 0.068.

B8: fabI I24Q (protein)
chain: MGFLSGKRILVTGVASKLSIAYGQAQAMHREGAELAFTYQNDKLKGRVEEFAAQLGSDIVLQCDVAEDASIDTMFAELGKVWPKFDGFVHSIGFAPGDQLDGDYVNAVTREGFKIAHDISSYSFVAMAKACRSMLNPGSALLTLSYLGAERAIPNYNVMGLAKASLEANVRYMANAMGPEGVRVNAISAGPIRTLAASGIKDFRKMLAHCEAVTPIRRTVTIEDVGNSAAFLCSDLSAGISGEVVHVDGGFSIAAMNELELK
As for B8, under setting [1], the “fold change of barcode share” value was determined as 9.09 ± 0.47.

B9: fabI V184D (protein)
chain: MGFLSGKRILVTGVASKLSIAYGIAQAMHREGAELAFTYQNDKLKGRVEEFAAQLGSDIVLQCDVAEDASIDTMFAELGKVWPKFDGFVHSIGFAPGDQLDGDYVNAVTREGFKIAHDISSYSFVAMAKACRSMLNPGSALLTLSYLGAERAIPNYNVMGLAKASLEANVRYMANAMGPEGVRDNAISAGPIRTLAASGIKDFRKMLAHCEAVTPIRRTVTIEDVGNSAAFLCSDLSAGISGEVVHVDGGFSIAAMNELELK
Consider B9, for which the “fold change of barcode share” value is, setting by setting: under setting [1], 0.416 ± 0.18; under setting [2], 0.0253 ± 0.0048.

B10: fabI F113A (protein)
chain: MGFLSGKRILVTGVASKLSIAYGIAQAMHREGAELAFTYQNDKLKGRVEEFAAQLGSDIVLQCDVAEDASIDTMFAELGKVWPKFDGFVHSIGFAPGDQLDGDYVNAVTREGAKIAHDISSYSFVAMAKACRSMLNPGSALLTLSYLGAERAIPNYNVMGLAKASLEANVRYMANAMGPEGVRVNAISAGPIRTLAASGIKDFRKMLAHCEAVTPIRRTVTIEDVGNSAAFLCSDLSAGISGEVVHVDGGFSIAAMNELELK
On to B10, for which the “fold change of barcode share” value is 0.399 ± 0.17 under setting [1] and < 0.00927 under setting [2].

B11: fabI V105P (protein)
chain: MGFLSGKRILVTGVASKLSIAYGIAQAMHREGAELAFTYQNDKLKGRVEEFAAQLGSDIVLQCDVAEDASIDTMFAELGKVWPKFDGFVHSIGFAPGDQLDGDYPNAVTREGFKIAHDISSYSFVAMAKACRSMLNPGSALLTLSYLGAERAIPNYNVMGLAKASLEANVRYMANAMGPEGVRVNAISAGPIRTLAASGIKDFRKMLAHCEAVTPIRRTVTIEDVGNSAAFLCSDLSAGISGEVVHVDGGFSIAAMNELELK
Regarding B11, the “fold change of barcode share” value under setting [1] was 0.142 ± 0.063 and the “fold change of barcode share” value under setting [2] is < 0.0194.

B12: fabI F113W (protein)
chain: MGFLSGKRILVTGVASKLSIAYGIAQAMHREGAELAFTYQNDKLKGRVEEFAAQLGSDIVLQCDVAEDASIDTMFAELGKVWPKFDGFVHSIGFAPGDQLDGDYVNAVTREGWKIAHDISSYSFVAMAKACRSMLNPGSALLTLSYLGAERAIPNYNVMGLAKASLEANVRYMANAMGPEGVRVNAISAGPIRTLAASGIKDFRKMLAHCEAVTPIRRTVTIEDVGNSAAFLCSDLSAGISGEVVHVDGGFSIAAMNELELK
For B12, the “fold change of barcode share” value reads like this: under setting [1], 0.451 ± 0.032; under setting [2], 0.0261 ± 0.016.

B13: fabI V108A (protein)
chain: MGFLSGKRILVTGVASKLSIAYGIAQAMHREGAELAFTYQNDKLKGRVEEFAAQLGSDIVLQCDVAEDASIDTMFAELGKVWPKFDGFVHSIGFAPGDQLDGDYVNAATREGFKIAHDISSYSFVAMAKACRSMLNPGSALLTLSYLGAERAIPNYNVMGLAKASLEANVRYMANAMGPEGVRVNAISAGPIRTLAASGIKDFRKMLAHCEAVTPIRRTVTIEDVGNSAAFLCSDLSAGISGEVVHVDGGFSIAAMNELELK
B13: the “fold change of barcode share” value was 0.48 ± 0.0095 under setting [1] and < 0.00986 under setting [2].

B14: fabI I24D (protein)
chain: MGFLSGKRILVTGVASKLSIAYGDAQAMHREGAELAFTYQNDKLKGRVEEFAAQLGSDIVLQCDVAEDASIDTMFAELGKVWPKFDGFVHSIGFAPGDQLDGDYVNAVTREGFKIAHDISSYSFVAMAKACRSMLNPGSALLTLSYLGAERAIPNYNVMGLAKASLEANVRYMANAMGPEGVRVNAISAGPIRTLAASGIKDFRKMLAHCEAVTPIRRTVTIEDVGNSAAFLCSDLSAGISGEVVHVDGGFSIAAMNELELK
Consider B14, for which the “fold change of barcode share” value under setting [1] came out at 0.255 ± 0.16.

B15: fabZ L25A (protein)
chain: MTTNTHTLQIEEILELLPHRFPFLAVDRVLDFEEGRFLRAVKNVSVNEPFFQGHFPGKPIFPGVLILEAMAQATGILAFKSVGKLEPGELYYFAGIDEARFKRPVVPGDQMIMEVTFEKTRRGLTRFKGVALVDGKVVCEATMMCARSREA
Turning to B15, the “fold change of barcode share” value reads like this: under setting [1], 0.424 ± 0.18; under setting [2], < 0.00956.
